Experimental findings from US20100184652 are described below.

Data set [1] deals with T1, pY213 peptide (14-residue Abi1 peptide containing phosphorylated tyrosine 213).
T1 chain: VKPPTVPNDYMTSP

Data set [2] has as its target T2, biotinylated model substrate peptide GGEAIYAAPFKK
T2 chain: GGEAIYAAPFKK

The target of data set [3] is T3, F213 peptide (14-residue Abi1 peptide with tyrosine to phenylalanine replacement at position 213).
T3 chain: VKPPTVPNDFMTSP

In data set [4] the target is T4, Y213 peptide (14-residue Abi1 peptide containing nonphosphorylated tyrosine 213).
T4 chain: VKPPTVPNDYMTSP

B1: His-tagged, uncapped active c-Abl, E46 through C-terminus (isoform 1b) (protein)
chain: EALQRPVASDFEPQGLSEAARWNSKENLLAGPSE[left out - about 60 residues]LEKHSWYHGPVSRNAAEYLLSSGINGSFLVRESESSPGQRSISLRYEGRVYHYRINTASDGKLYVSSESRFNTLAELVHHHSTVADGLITTLHYPAPKRNKPTVYGVSPNYDKWEMERTDITMKHKLGGGQYGEVYEGVWKKYSLTVAVKTLKEDTMEVEEFLKEAAVMKEIKHPNLVQLLGVCTREPPFYIITEFMTYGNLLDYLRECNRQEVNAVVLLYMATQISSAMEYLEKKNFIHRDLAARNCLVGENHLVKVADFGLSRLMTGDTYTAHAGAKFPIKWTAPESLAYNKFSIKSDVWAFGVLLWEIATYGMSPYPGIDLSQVYELLEKDYRMERPEGCPEKVYELMRACWQWNPSDRPSFAEIHQAFETMFQESSISDEVEKELGKQGVRGAVSTLLQAPELPTKTRTSRRAAEHRDTTDVPEMPHSKGQGESDPLDHEPAVSPLLPRKERGPPEGGLNEDERLLPKDKKTNLFSALIKKKKKTAPTPPKRSSSFREMDGQPERRGAGEEEGRDISNGALAFTPLDTADPAKSPKPSNGAGVPNGALRESGGSGFRSPHLWKKSSTLTSSRLATGEEEGGGSSSKRFLRSCSASCVPHGAKDTEWRSVTLPRDLQSTGRQFDSSTFGGHKSEKPALPRKRAGENRSDQVTRGTVTPPPRLVKKNEEAADEVFKDIMESSPGSSPPNLTPKPLRRQVTVAPASGLPHKEEAGKGSALGTPAAAEPVTPTSKAGSGAPGGTSKGPAEESRVRRHKHSSESPGRDKGKLSRLKPAPPPPPAASAGKAGGKPSQSPSQEAAGEAVLGAKTKATSLVDAVNSDAAKPSQPGEGLKKPVLPATPKPQSAKPSGTPISPAPVPSTLPSASSALAGDQPSSTAFIPLISTRVSLRKTRQPPERIASGAITKGVVLDSTEALCLAISRNSEQMASHSAVLEAGKNLYTFCVSYVDSIQQMRNKFAFREAINKLENNLRELQICPATAGSGPAATQDFSKLLSSVKEISDIVQR
B1: in data set [1], the Fold Change (PEP) of Vmax with pY213 at 2 mM was found to be 0.62 fold, the Km (µM) of the substrate peptide with pY213 at 2 mM was 24.9 µM and the Vmax (pmol/min-µg) of c-Abl with pY213 at 2 mM came out at 97.5 pmol/min-µg. In data set [2], the Fold Change (PEP) of Vmax, substrate peptide alone is 1 fold; the Km (µM) of the substrate peptide amounted to 21.2 µM; the Vmax (pmol/min-µg), substrate peptide alone came out at 158 pmol/min-µg. Moreover, in data set [3], the Fold Change (PEP) of Vmax with F213 at 2 mM turned out to be 1.03 fold, the Km (µM) of the substrate peptide with F213 at 2 mM amounted to 25.8 µM and the Vmax (pmol/min-µg) of c-Abl with F213 at 2 mM is 163 pmol/min-µg. In data set [4], the Fold Change (PEP) of Vmax with Y213 at 0.1 mM stood at 0.71 fold, the Fold Change (PEP) of Vmax with Y213 at 0.25 mM worked out at 0.55 fold, the Fold Change (PEP) of Vmax with Y213 at 2.0 mM came to 0.018 fold and the Km (µM) of the substrate peptide with Y213 at 0.1 mM is 14.9 µM. Moreover, in data set [4], the Km (µM) of the substrate peptide with Y213 at 0.25 mM was determined as 16.5 µM, the Km (µM) of the substrate peptide with Y213 at 2.0 mM came out at 16.3 µM, the Vmax (pmol/min-µg) of c-Abl with Y213 at 0.1 mM turned out to be 112 pmol/min-µg and the Vmax (pmol/min-µg) of c-Abl with Y213 at 0.25 mM worked out at 86.7 pmol/min-µg. For the same protein, the Vmax (pmol/min-µg) of c-Abl with Y213 at 2.0 mM in data set [4] worked out at 2.9 pmol/min-µg.
